The data set concerns the molecule itself. The data set is described as follows: cross-linking.

B1: Hsp90Ec-Q358C (natural protein)
chain: not shown
In the case of B1, the binding result was “binds”.

B2: Hsp90Ec-E584C (natural protein)
chain: not shown
For the protein B2, the binding result is on record as “binds”.

The values are drawn from paper PMC6599576 (Journal of molecular biology, 2019).
